Test results published in PubChem BioAssay AID488969 (Vanderbilt High Throughput Screening Facility, 2010).
Over roughly 110,000 compounds, “z-score” has its median near -0.1; the highest 2% begin near 2. The list shows a part of the results.

The molecules below were run against Metabotropic glutamate receptor 8 (Rattus norvegicus) (UniProt P70579) (assay: rat mGluR8 modulators via GIRK flux, primary screen, cell-based, thallium flux, HTS (AID 488969)). Details: HEK293 rat mGluR8, GIRK (G protein-gated inwardly rectifying potassium channel) thallium flux, FluoZin2; at 10 µM; stronger effect = higher value; submaximal glutamate (EC20) added with thallium.
Sequence of UniProt P70579 (P70579 whole entry, looked up): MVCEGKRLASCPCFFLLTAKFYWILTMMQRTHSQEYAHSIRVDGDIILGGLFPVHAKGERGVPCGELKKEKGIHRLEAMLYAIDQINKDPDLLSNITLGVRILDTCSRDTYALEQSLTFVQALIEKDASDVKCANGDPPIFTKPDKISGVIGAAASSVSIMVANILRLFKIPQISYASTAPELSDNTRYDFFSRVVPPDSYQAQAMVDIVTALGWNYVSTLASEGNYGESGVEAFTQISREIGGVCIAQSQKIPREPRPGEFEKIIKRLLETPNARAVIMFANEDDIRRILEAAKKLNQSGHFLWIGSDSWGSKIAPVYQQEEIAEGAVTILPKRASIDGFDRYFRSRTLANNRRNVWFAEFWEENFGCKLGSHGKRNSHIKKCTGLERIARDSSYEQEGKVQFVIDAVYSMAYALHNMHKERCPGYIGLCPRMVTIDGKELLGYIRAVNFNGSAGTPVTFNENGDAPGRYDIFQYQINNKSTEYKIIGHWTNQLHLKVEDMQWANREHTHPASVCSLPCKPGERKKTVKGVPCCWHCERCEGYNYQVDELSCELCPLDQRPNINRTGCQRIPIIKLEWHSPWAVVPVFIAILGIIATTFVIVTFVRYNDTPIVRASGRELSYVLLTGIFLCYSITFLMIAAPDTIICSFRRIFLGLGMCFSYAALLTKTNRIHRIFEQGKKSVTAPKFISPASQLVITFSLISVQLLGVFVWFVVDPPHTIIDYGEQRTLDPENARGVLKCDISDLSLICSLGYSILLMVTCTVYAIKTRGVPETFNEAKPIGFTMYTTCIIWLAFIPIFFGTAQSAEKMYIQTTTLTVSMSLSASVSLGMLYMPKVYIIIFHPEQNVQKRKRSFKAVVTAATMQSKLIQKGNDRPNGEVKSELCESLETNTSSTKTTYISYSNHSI

First: CCC(Oc1cc(Cl)ccc1Cl)C(=O)NN1C(=O)C2C3CCC(C3=C(C)C)C2C1=O (centres undefined)
Second: CCCN1C2CCCC1CC(NC(=O)Nc1ccc(C(C)C)cc1)C2 (centres undefined)
The z-score of the first is lower: -0.284 for the first, 0.407 for the second.

Compared with `Cc1ccccc1N(C(=O)Cc1ccsc1)C(C(=O)NC1CCCCC1)c1ccc(F)cc1` (centres undefined), `O=C(CNC(=O)c1ccccc1)NC1(C(=O)NC2CCCC2)CCCCC1` is higher in z-score: -0.419 for the first, 0.0493 for the second.

Going from `Cc1cc(C(=O)COC(=O)CNS(=O)(=O)c2ccc3ccccc3c2)c(C)n1-c1ccccc1` to `COc1ccc(C(=O)NCC(=O)OCC(=O)Nc2c(C)n(C)n(-c3ccccc3)c2=O)cc1`, the z-score rises from -0.132 to 0.287.

Compared with `CCOC(=O)C1CCCN(C(=O)CS(=O)(=O)Cc2ccccc2)C1` (centres undefined), `NC(=O)C1CCN(C(=O)COc2ccc(S(=O)(=O)NCc3ccccc3)cc2Cl)CC1` is lower in z-score: 0.403 for the first, -0.343 for the second.

First: COc1ccc(/C=N/NC(=O)c2ccn[nH]2)cc1COc1ccc(F)cc1
Second: COc1ccc(C(=O)Nc2cc(C)ccc2NC(=O)COc2ccccc2)cc1
The z-score of the first is lower: -0.228 for the first, 0.2 for the second.

First: COC(=O)CCP(=O)(O)Cc1ccccc1CP(=O)(O)CCC(=O)OC
Second: CCOC(=O)c1[nH]c2ccccc2c1NC(=O)CN(C)C
The z-score of the first is lower: 0.00641 for the first, 0.0703 for the second.

Going from `c1ccc(-c2cn3nc4c(nc3n2)CCCC4)cc1` to `COc1ccc(NC(=O)c2c3c(nc4ccccc24)CCC3)cc1`, the z-score falls from 0.758 to -0.169.

Going from `Fc1ccc(CNc2nc3ccccc3n3cnnc23)cc1` to `CNc1sc(C(=O)c2ccc(F)cc2)c(N)c1-c1nc2ccccc2s1`, the z-score rises from -0.283 to 0.1.

Compared with `COc1ccc(OC)c(NC(=O)CCn2cccc2)c1`, `COc1ccc(Cl)cc1NC(=O)CN(c1ccccc1)S(=O)(=O)N(C)C` is lower in z-score: -0.233 for the first, -0.969 for the second.

First: CC1CCCN(CC(O)COCC2COc3ccccc3O2)C1 (centres undefined)
Second: COc1ccc(CC(=O)N2CCCC(C)C2)cc1 (centres undefined)
The z-score of the first is higher: 0.163 for the first, -0.338 for the second.

First: O=C(C[n+]1cc(-c2ccc(Cl)c(Cl)c2)n2c1CCC2)N1c2ccccc2Sc2ccccc21
Second: Cn1nnnc1SCC(=O)N1c2ccccc2Sc2ccccc21
The z-score of the first is lower: -0.605 for the first, -0.205 for the second.

First: C=C(C)CSc1nnc([C@@H](NC(=O)OC(C)(C)C)C(C)CC)o1 (some centres undefined)
Second: CCOC(=O)CSc1nnc(-c2ccc(OC)cc2OC)o1
The z-score of the first is lower: -0.0912 for the first, 0.342 for the second.

Compared with `COc1cc2c(cc1NC(=O)CSc1nc3cc(Cl)ccc3s1)oc1ccccc12`, `COc1cc2c(cc1NC(=S)Nc1ccccc1C)oc1ccccc12` is higher in z-score: -0.383 for the first, -0.198 for the second.

Compared with `Cc1ccccc1OCC(=O)NNC(=S)NC(=O)c1ccccc1[N+](=O)[O-]`, `O=C(NNC(=S)NC(=O)c1cccs1)c1ccc(NC(=O)c2ccccc2)cc1` is higher in z-score: -0.148 for the first, -0.0903 for the second.

Compared with `CC(C)c1nnc(NC(=O)CCC(=O)NCc2cccs2)s1`, `CCOC(=O)Cc1csc(NS(C)(=O)=O)n1` is lower in z-score: -0.0359 for the first, -0.052 for the second.

Compared with `CCOc1ccc(CNC(=O)NS(=O)(=O)c2ccc(OC)cc2)cc1`, `CCOC(=O)C1=NN(c2ccc(OC)cc2)C(c2ccccc2)CC1=O` (centres undefined) is lower in z-score: 0.511 for the first, -2.34 for the second.

Compared with `Cc1ccc(CNc2nc(C)nc3sc4c(c23)CCC4)cc1`, `Cc1ccc(Nc2nc(N)nc(CN3CCCCCC3)n2)c(C)c1` is lower in z-score: 0.156 for the first, -0.236 for the second.

Compared with `CN(Cc1ccccc1)S(=O)(=O)c1ccc(NS(C)(=O)=O)cc1`, `CC(C)C(=O)N(c1ccc2oc(=O)sc2c1)S(=O)(=O)c1ccccc1` is lower in z-score: 0.806 for the first, -0.0559 for the second.

First: O=S(=O)(c1ccccc1)c1cnc(-c2cccnc2)nc1-c1ccccc1
Second: COc1ccc(NC(=O)c2ccc3nc(-c4ccccc4)c(-c4ccccc4)nc3c2)c(OC)c1
The z-score of the first is higher: 0.0723 for the first, -0.218 for the second.

First: CCNC(=S)NNC(=O)Nc1ccccc1
Second: O=[N+]([O-])c1cccc(/C([O-])=C(/C(=S)Nc2ccccc2)[n+]2ccccc2)c1
The z-score of the first is lower: -0.442 for the first, -0.121 for the second.

First: CCc1nnc(NS(=O)(=O)c2ccc(N=Cc3c(C)[nH]n(-c4ccc(C)cc4)c3=O)cc2)s1
Second: Cc1ccc(S(=O)(=O)Nc2ccc3nc(-c4cccn4C)[nH]c3c2)cc1
The z-score of the first is higher: -0.494 for the first, -0.571 for the second.

Going from `Cc1ccc(N2CCCn3c2cc(C)c(C#N)c3=O)cc1C` to `Cc1nc2ccccc2c(=O)n1CC(=O)N1CCOCC1`, the z-score rises from -2.07 to 0.167.

First: Cc1ccc(CSC2=Nc3ccccc3C3=NC(CC(=O)NCc4ccco4)C(=O)N23)cc1 (centres undefined)
Second: Cc1ccc(NCN2C(=O)C(=O)c3ccccc32)nc1
The z-score of the first is higher: -0.0671 for the first, -0.275 for the second.

Compared with `Cc1cccc(/C=N\Nc2cn[nH]c(=O)c2Cl)c1`, `CCSc1ncc(/C=N/Nc2ccc(Cl)cc2)n1C` is higher in z-score: -0.328 for the first, -0.2 for the second.

Compared with `Cc1ccnc(SCCn2c(N3CCCCC3)nc3c2c(=O)[nH]c(=O)n3C)n1`, `O=C(CSc1ccc2nnc(-c3ccccn3)n2n1)N1CCN(c2ccccc2)CC1` is lower in z-score: -0.0599 for the first, -1.21 for the second.

Compared with `COc1cccc(/C=N/NC(=O)CSc2nnc(C)n2-c2ccccc2)c1O`, `O=C(c1cn(-c2ccccc2)nc1-c1cccs1)N(CCO)Cc1ccccc1` is lower in z-score: -0.123 for the first, -0.178 for the second.

Going from `O=C1/C(=C\c2ccc(-c3ccccc3[N+](=O)[O-])o2)C(c2ccccc2)=NN1c1ccccc1` to `COc1ccc2c(c1)C1(Nc3ccccc3-c3nc4ccccc4n31)C(=O)N2` (centres undefined), the z-score falls from 0.149 to -0.00926.

Compared with `COc1ccc(OC)c(C2SCCN2S(C)(=O)=O)c1` (centres undefined), `COC(=O)C1CSc2[nH]c(=O)sc2C1c1ccc(OC)c(OC)c1` (centres undefined) is higher in z-score: 0.0293 for the first, 0.116 for the second.

Going from `CSc1cccc(NC(=O)c2cnccn2)c1` to `O=C(Nc1ccc(Br)cc1F)c1cccnc1`, the z-score rises from -0.00885 to 0.587.

Compared with `CC(C)(C)Nc1nc(NN)nc(NC(C)(C)C)n1`, `CCOC(=O)NC(NCc1ccccc1Cl)(C(F)(F)F)C(F)(F)F` is higher in z-score: -0.766 for the first, -0.0808 for the second.

Compared with `COc1ccc(S(=O)(=O)N2CCCC2C(=O)Nc2nc3c(s2)CCCC3)cc1` (centres undefined), `Cc1ccc2c(c1)-c1c(cnn1CC(=O)N(Cc1ccco1)C1CCCCC1)CO2` is higher in z-score: -0.71 for the first, -0.367 for the second.

Going from `O=C(Nc1ccccc1N1CCN(C(=O)c2ccc(Cl)cc2)CC1)c1ccc(Br)cc1` to `O=C(O)CCC(=O)N1CCN(c2ccc(C(=O)c3ccc(F)cc3)cc2)CC1`, the z-score rises from -0.729 to 0.165.

Compared with `O=C(O)c1ccc(NC(CSCc2ccc(F)cc2)C(=O)O)c([N+](=O)[O-])c1` (centres undefined), `CCCCN1C2=C(C(=O)CCC2)C(c2ccc(Cl)c(Cl)c2)C2=C1c1ccccc1C2=O` (centres undefined) is lower in z-score: -0.00656 for the first, -0.878 for the second.

First: COc1cccc(C2c3c(oc4cc(C)c(C)cc4c3=O)C(=O)N2CCCN(C)C)c1 (centres undefined)
Second: C=CCNCCCCOc1c(Cl)cc(C)cc1Br
The z-score of the first is lower: -0.119 for the first, 0.796 for the second.

In the case of `COCCOc1cc(-n2ccnc2SC)c(Cl)cc1Cl`, the z-score is reported as -0.449.
